Experimental data as given in PubChem BioAssay AID1030 (National Center for Advancing Translational Sciences (NCATS), 2008).
Out of some 220,000 compounds screened, about 16,000 (7.3%) were called active. The shares of active, inactive and inconclusive entries below differ from those in the screen. Calls follow the shape of the dose curve; as a rule, active = well fitted inhibition curve with a large enough effect (not every such curve was filed as active); inconclusive = small, poorly fitted or top-dose-only effect, or another doubt; inactive = no such curve, though single readings can be large or run the other way. Potencies of inconclusive entries are left out as doubtful fits.

Target: Aldehyde dehydrogenase 1A1 (Homo sapiens) (UniProt P00352)
Chain of UniProt P00352 (P00352 whole entry, looked up): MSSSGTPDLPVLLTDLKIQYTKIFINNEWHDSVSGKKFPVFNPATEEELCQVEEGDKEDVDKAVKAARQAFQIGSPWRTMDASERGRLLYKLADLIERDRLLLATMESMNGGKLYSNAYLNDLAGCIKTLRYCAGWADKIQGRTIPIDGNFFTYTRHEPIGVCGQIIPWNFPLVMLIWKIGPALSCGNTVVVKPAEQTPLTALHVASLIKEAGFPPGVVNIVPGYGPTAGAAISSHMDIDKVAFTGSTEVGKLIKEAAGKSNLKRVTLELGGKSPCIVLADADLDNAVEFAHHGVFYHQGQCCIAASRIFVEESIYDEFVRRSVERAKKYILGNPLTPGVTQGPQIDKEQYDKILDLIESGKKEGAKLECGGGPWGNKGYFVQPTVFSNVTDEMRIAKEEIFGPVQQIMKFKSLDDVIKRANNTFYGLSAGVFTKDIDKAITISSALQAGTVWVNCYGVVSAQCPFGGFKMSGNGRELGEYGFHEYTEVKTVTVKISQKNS
Assay: qHTS Assay for Inhibitors of Aldehyde Dehydrogenase 1 (ALDH1A1)
Settings: Purified ALDH1A1, NADH fluorescence, propionaldehyde substrate; series mostly up to 75.3 µM
Potency is read from the fitted curve at half-maximal effect; tags tell the direction and shape of the fitted curve.

Row | Structure (SMILES) | Potency
1 | COc1ccc(NCC(=O)N/N=C2\CCc3ccccc32)cc1 | inconclusive [inhibitor, partial curve]
2 | O=C(NC(=S)N1CCc2ccccc21)c1ccc(Br)o1 | inconclusive [inhibitor, single point]
3 | COC(=O)C1=CN(CC2CCCO2)C=C(C(=O)OC)C1c1ccccc1C(F)(F)F (configuration not stated) | inconclusive [inhibitor, partial curve]
4 | CN1CCN(c2nc3ccccc3nc2C(C#N)C(=O)OC2CCCCC2)CC1 (configuration not stated) | active: 15.8 µM
5 | COCCNC(=S)NCCCNc1nc2cc3c(cc2cc1C#N)OCO3 | inconclusive [inhibitor, full curve]
6 | COc1ccc(NC(=S)Nc2ccccn2)c(OC)c1 | inconclusive [inhibitor, single point]
7 | Cc1ccc(S(=O)(=O)Oc2ccc(/C=N/NC(=O)c3nn(C)cc3[N+](=O)[O-])cc2)cc1 | inconclusive [inhibitor, single point]
8 | Nc1cc(=O)[nH]c(SCC(=O)Nc2cc(S(=O)(=O)N3CCOCC3)ccc2Cl)n1 | inconclusive [inhibitor, single point]
9 | CCOC(=O)c1sc(=NC(=O)c2cc(OC)c(OC)c(OC)c2)n(C)c1C | inconclusive [inhibitor, partial curve]
10 | O=C(CCCN1C(=O)c2cccc3cccc(c23)C1=O)N1CCN(c2ccccc2)CC1 | inconclusive [inhibitor, single point]
11 | O=C1Nc2ccccc2/C1=N\N=C\C1=C(N2CCOCC2)C(=C\c2ccccc2)/CC1 | active: 10 µM
12 | CC1CCCCN1C(=O)c1ccc(COc2ccc([N+](=O)[O-])cc2)o1 (configuration not stated) | active: 14.1 µM
13 | CCOc1cc(C)cc2oc(=O)cc(-c3ccccc3)c12 | active: 22.4 µM
14 | Cc1sc(-c2ccncc2)nc1OC(=O)c1ccccc1 | inconclusive [inhibitor, partial curve]
15 | COc1cccc(C2/C(=C(/O)c3ccncc3)C(=O)C(=O)N2CCCN(C)C)c1 (configuration not stated) | inactive
16 | Cc1ccc(CNC(=O)COc2ccccc2-c2ccccc2)cc1 | inactive
17 | O=C(Nc1ccc2c(c1)OCO2)C1CC(=O)N(c2ccc3c(c2)OCCO3)C1 (configuration not stated) | inactive
18 | COc1ccc(C(=O)NC(=S)Nc2ccc3c(c2)Cc2ccccc2-3)cc1 | active: 10 µM
19 | CCn1c(/C=C/c2ccccc2)nc2ccccc21 | inconclusive [inhibitor, partial curve]

Row | Structure (SMILES) | Potency
20 | COC(=O)c1ccccc1NC(=O)N1CCN(C(=O)c2ccco2)CC1 | inconclusive [inhibitor, partial curve]
21 | C=CCn1c(Cc2csc(N)n2)nnc1SCC(=O)Nc1ccc(C(=O)OCC)cc1 | inconclusive [inhibitor, partial curve]
22 | COc1ccc(S(=O)(=O)NNC(=O)c2cc3c4ccccc4n(C)c3s2)cc1 | inconclusive [inhibitor, partial curve]
23 | CCNC(=S)N/N=C1\CCCCc2ccccc21 | inconclusive [inhibitor, full curve]
24 | COc1ccc(S(=O)(=O)NCc2ccc3c(c2)cc(C)n3C)cc1 | inconclusive [inhibitor, partial curve]
25 | C/C(=N/NC(=O)c1cnccn1)c1cccs1 | inactive
26 | CC(C)(C)C(=O)NC(=S)NCc1ccccc1 | inactive
27 | Nc1nc2ccc([N+](=O)[O-])cc2[nH]1 | inconclusive [inhibitor, single point]
28 | CCN(CC)CCN1C(=O)c2ccccc2NC1c1cccc(F)c1 (configuration not stated) | inconclusive [inhibitor, partial curve]
29 | Cc1c(N)cccc1Cl | inconclusive [inhibitor, single point]
30 | CS(=O)(=O)N1CCN(c2ccc([N+](=O)[O-])c(SCc3ccco3)c2)CC1 | inconclusive [inhibitor, single point]
31 | CC1CCCN(C(=O)c2ccc3c(=O)n(Cc4ccc5c(c4)OCO5)c(=S)[nH]c3c2)C1 (configuration not stated) | active: 10 µM
32 | COc1ccc2nc(NC(=O)Nc3cccc4ccccc34)sc2c1 | inconclusive [inhibitor, single point]
33 | N/C(=N\OC(=O)CCC1CCCC1)c1ccc([N+](=O)[O-])cc1 | inconclusive [inhibitor, single point]
34 | CCn1c(/C=C/N(C)c2ccccc2)[n+](CC)c2ccc(Cl)cc21 | inconclusive [inhibitor, single point]
35 | COc1ccc(F)cc1C(=O)C1CCCN(Cc2cnc(N3CCCC3)s2)C1 (configuration not stated) | inconclusive [inhibitor, single point]
36 | CCCCC/C=C\C/C=C\C=C\[C@@H](O)C/C=C\CCCC(=O)O | inactive
37 | CCC(CC)COC(=O)C(C#N)c1nc2ccccc2nc1N1CCOCC1 (configuration not stated) | active: 10 µM
